Measurements as given in the supplement of paper PMC4967469.
IC50 is the fitted dose that halves viability relative to control wells, and lower means more sensitive; where the fit passes the top or lowest dose, that dose stands as a limit. For AUC the same curve is integrated over the 256-fold range of doses and scaled to a fraction: 1 means no effect, lower means more sensitive. For some assays here: An inferred top dose comes from the curve model; the source does not state it. For some assays here: Drugs with an entry number were screened twice under separate entries, and the two screens often disagree.

What was measured:
Assay in all cases: Viability of human cancer cell lines after 72 h of drug (GDSC screen)
YM201636 = compound: Nc1ccc(C(=O)Nc2cccc(-c3nc(N4CCOCC4)c4oc5ncccc5c4n3)c2)cn1 [YM201636]; details: top dose 5.12 µM; top dose inferred
Description: (§1)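 Human cancer cell lines in 384-well plates, medium with 10% serum, drug for 72 h over a 256-fold dose range (nine 2-fold or five 4-fold steps up to the top dose). Adherent lines were fixed and stained with the nucleic acid dye Syto60, suspension lines read with resazurin; signal relative to control wells, capped at 0 and 100%. One two-parameter sigmoid per drug and line, fitted in a mixed model over all curves with the slope shared within a line.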

AZ628 = compound: Cc1ccc(NC(=O)c2cccc(C(C)(C)C#N)c2)cc1Nc1ccc2ncn(C)c(=O)c2c1 [AZ628]; details: top dose 4 µM; top dose inferred
Description: as §1

EX-527 = compound: NC(=O)C1CCCc2c1[nH]c1ccc(Cl)cc21 [EX-527]; details: top dose 20 µM
Description: as §1

AS601245 = compound: N#CC(c1ccnc(NCCc2cccnc2)n1)c1nc2ccccc2s1 [AS601245]; details: top dose 8 µM; top dose inferred
Description: as §1

AZD6244 = compound: Cn1cnc2c(F)c(Nc3ccc(Br)cc3Cl)c(C(=O)NOCCO)cc21 [AZD6244]; details: top dose 4 µM; screen: GDSC drug entry 1498; top dose inferred
Description: as §1

Row | Cell Line | AUC (YM201636) | IC50 (YM201636) [µM] | AUC (AZ628) | IC50 (AZ628) [µM] | AUC (EX-527) | IC50 (EX-527) [µM] | AUC (AS601245) | IC50 (AS601245) [µM] | AUC (AZD6244) | IC50 (AZD6244) [µM]
1 | COLO-320-HSR (large intestine, suspension) | 0.793 | 2 | 0.99 | > 4 | 0.982 | > 20 | 0.919 | > 8 | 0.99 | > 4
2 | COLO-668 (small cell lung carcinoma, adherent) | 0.927 | > 5.12 | 0.935 | > 4 | 0.989 | > 20 | 0.836 | 5.3 | 0.946 | > 4
3 | COLO-684 (endometrium, suspension) | 0.734 | 1.64 | 0.967 | > 4 | 0.984 | > 20 | 0.859 | 7.98 | 0.973 | > 4
4 | COLO-800 (melanoma, adherent) | 0.942 | > 5.12 | 0.887 | > 4 | 0.985 | > 20 | 0.988 | > 8 | 0.97 | > 4
5 | COLO-824 (breast, adherent) | 0.934 | > 5.12 | 0.95 | > 4 | 0.983 | > 20 | 0.887 | > 8 | 0.979 | > 4
6 | COLO-829 (melanoma, adherent) | 0.94 | > 5.12 | 0.291 | 0.0478 | 0.961 | > 20 | 0.875 | > 8 | 0.727 | 1.53
7 | COR-L88 (small cell lung carcinoma, adherent) | 0.895 | > 5.12 | 0.956 | > 4 | 0.984 | > 20 | 0.977 | > 8 | 0.965 | > 4
8 | COR-L95 (small cell lung carcinoma, adherent) | 0.915 | > 5.12 | 0.958 | > 4 | 0.986 | > 20 | 0.955 | > 8 | 0.984 | > 4
9 | COR-L279 (small cell lung carcinoma, suspension) | 0.926 | > 5.12 | 0.974 | > 4 | 0.944 | > 20 | 0.976 | > 8 | 0.99 | > 4
10 | CP66-MEL (melanoma, adherent) | 0.879 | > 5.12 | 0.42 | 0.146 | 0.98 | > 20 | 0.95 | > 8 | 0.249 | 0.0423
11 | CPC-N (small cell lung carcinoma, suspension) | 0.89 | > 5.12 | 0.889 | > 4 | 0.984 | > 20 | 0.925 | > 8 | 0.983 | > 4
12 | CTB-1 (B-cell lymphoma, suspension) | 0.709 | 1.57 | 0.87 | > 4 | 0.977 | > 20 | 0.95 | > 8 | 0.915 | > 4
13 | CTV-1 (acute myeloid leukaemia, suspension) | 0.773 | 1.61 | 0.767 | 1.21 | 0.984 | > 20 | 0.766 | 2.4 | 0.975 | > 4
14 | CW-2 (large intestine, adherent) | 0.944 | > 5.12 | 0.979 | > 4 | 0.986 | > 20 | 0.989 | > 8 | 0.932 | > 4
15 | D-263MG (glioma, adherent) | 0.961 | > 5.12 | 0.807 | 2.59 | 0.976 | > 20 | 0.976 | > 8 | 0.706 | 1.08
16 | D-283MED (medulloblastoma, adherent) | 0.991 | > 5.12 | 0.974 | > 4 | 0.99 | > 20 | 0.924 | > 8 | 0.988 | > 4
17 | D-392MG (glioma, adherent) | 0.892 | > 5.12 | 0.54 | 0.333 | 0.96 | > 20 | 0.897 | > 8 | 0.853 | > 4
18 | D-502MG (glioma, adherent) | 0.917 | > 5.12 | 0.732 | 1.69 | 0.94 | > 20 | 0.966 | > 8 | 0.661 | 0.902
19 | DB (B-cell lymphoma, suspension) | 0.699 | 1.26 | 0.946 | > 4 | 0.952 | > 20 | 0.904 | > 8 | 0.98 | > 4
20 | DEL (lymphoid neoplasm, suspension) | 0.98 | > 5.12 | 0.991 | > 4 | 0.967 | > 20 | 0.843 | 3.99 | 0.993 | > 4
21 | DG-75 (Burkitt lymphoma, suspension) | 0.897 | > 5.12 | 0.977 | > 4 | 0.974 | > 20 | 0.982 | > 8 | 0.959 | > 4
22 | DJM-1 (skin, adherent) | 0.95 | > 5.12 | 0.907 | > 4 | 0.987 | > 20 | 0.955 | > 8 | 0.955 | > 4
23 | DMS-79 (small cell lung carcinoma, suspension) | 0.942 | > 5.12 | 0.978 | > 4 | 0.987 | > 20 | 0.983 | > 8 | 0.979 | > 4
24 | DMS-114 (small cell lung carcinoma, adherent) | 0.902 | > 5.12 | 0.947 | > 4 | 0.977 | > 20 | 0.967 | > 8 | 0.942 | > 4
25 | DSH1 (bladder, adherent) | 0.907 | > 5.12 | 0.901 | > 4 | 0.989 | > 20 | 0.91 | > 8 | 0.982 | > 4

Row | Cell Line | AUC (YM201636) | IC50 (YM201636) [µM] | AUC (AZ628) | IC50 (AZ628) [µM] | AUC (EX-527) | IC50 (EX-527) [µM] | AUC (AS601245) | IC50 (AS601245) [µM] | AUC (AZD6244) | IC50 (AZD6244) [µM]
26 | DU-4475 (breast, suspension) | 0.881 | 3.69 | 0.147 | 0.0276 | 0.983 | > 20 | 0.883 | 5.85 | 0.244 | 0.0547
27 | Daudi (Burkitt lymphoma, suspension) | 0.873 | 3.87 | 0.924 | > 4 | 0.989 | > 20 | 0.848 | 4.81 | 0.99 | > 4
28 | EB2 (Burkitt lymphoma, suspension) | 0.782 | 1.94 | 0.861 | 2.9 | 0.985 | > 20 | 0.864 | 5.91 | 0.988 | > 4
29 | EB-3 (Burkitt lymphoma, suspension) | 0.752 | 1.94 | 0.9 | > 4 | 0.968 | > 20 | 0.903 | > 8 | 0.976 | > 4
30 | EC-GI-10 (oesophagus, adherent) | 0.965 | > 5.12 | 0.989 | > 4 | 0.989 | > 20 | 0.973 | > 8 | 0.869 | 3.64
31 | EJM (lymphoid neoplasm, semi-adherent) | 0.909 | > 5.12 | 0.976 | > 4 | 0.985 | > 20 | 0.909 | > 8 | 0.984 | > 4
32 | EKVX (lung adenocarcinoma, adherent) | 0.956 | > 5.12 | 0.926 | > 4 | 0.948 | > 20 | 0.843 | > 8 | 0.865 | > 4
33 | EM-2 (chronic myeloid leukaemia, suspension) | 0.905 | > 5.12 | 0.481 | 0.22 | 0.979 | > 20 | 0.87 | > 8 | 0.49 | 0.234
34 | ES1 (Ewing sarcoma, adherent) | 0.613 | 0.65 | 0.891 | > 4 | 0.961 | > 20 | 0.908 | > 8 | 0.97 | > 4
35 | ES3 (Ewing sarcoma, adherent) | 0.739 | 1.62 | 0.923 | > 4 | 0.977 | > 20 | 0.868 | > 8 | 0.973 | > 4
36 | ES4 (Ewing sarcoma, adherent) | 0.703 | 1.31 | 0.968 | > 4 | 0.949 | > 20 | 0.802 | 4.63 | 0.97 | > 4
37 | ES5 (Ewing sarcoma, adherent) | 0.626 | 0.754 | 0.937 | > 4 | 0.975 | > 20 | 0.912 | > 8 | 0.965 | > 4
38 | ES6 (Ewing sarcoma, adherent) | 0.866 | > 5.12 | 0.916 | > 4 | 0.957 | > 20 | 0.77 | 3.77 | 0.926 | > 4
39 | ES7 (Ewing sarcoma, adherent) | 0.438 | 0.216 | 0.978 | > 4 | 0.95 | > 20 | 0.768 | 3.09 | 0.967 | > 4
40 | ES8 (Ewing sarcoma, adherent) | 0.672 | 0.925 | 0.939 | > 4 | 0.983 | > 20 | 0.835 | 4.74 | 0.946 | > 4
41 | ES-2 (ovary, adherent) | 0.948 | > 5.12 | 0.787 | 1.51 | 0.991 | > 20 | 0.978 | > 8 | 0.497 | 0.246
42 | ETK-1 (biliary tract, adherent) | 0.81 | 3.15 | 0.969 | > 4 | 0.983 | > 20 | 0.833 | 6.19 | 0.904 | > 4
43 | EVSA-T (breast, adherent) | 0.867 | 3.55 | 0.991 | > 4 | 0.987 | > 20 | 0.952 | > 8 | 0.988 | > 4
44 | EW-1 (Ewing sarcoma, semi-adherent) | 0.688 | 1.03 | 0.985 | > 4 | 0.989 | > 20 | 0.858 | 5.73 | 0.98 | > 4
45 | EW-3 (Ewing sarcoma, adherent) | 0.688 | 1.17 | 0.873 | > 4 | 0.978 | > 20 | 0.958 | > 8 | 0.98 | > 4
46 | EW-11 (Ewing sarcoma, adherent) | 0.801 | 3.39 | 0.848 | > 4 | 0.964 | > 20 | 0.95 | > 8 | 0.956 | > 4
47 | EW-13 (Ewing sarcoma, suspension) | 0.737 | 1.65 | 0.962 | > 4 | 0.975 | > 20 | 0.881 | > 8 | 0.984 | > 4
48 | EW-16 (Ewing sarcoma, adherent) | 0.812 | 2.88 | 0.982 | > 4 | 0.983 | > 20 | 0.845 | 6.18 | 0.959 | > 4
49 | EW-18 (Ewing sarcoma, suspension) | 0.74 | 1.65 | 0.894 | > 4 | 0.985 | > 20 | 0.847 | 6.5 | 0.98 | > 4
50 | EW-24 (Ewing sarcoma, semi-adherent) | 0.965 | > 5.12 | 0.877 | 3.18 | 0.993 | > 20 | 0.902 | > 8 | 0.992 | > 4
